Measured values: patent US20120219559A1 (Johns Hopkins, published 2012)

Experiments:
[1] = molecular target: T1, human B7-H2Ig fusion protein (human, UniProt O75144 19-258); test: flow cytometry on 293T cells transfected with human CD28; B7-H2Ig at 10 µg/ml
T1 construct: Ig (Fc) part not given
T1 sequence: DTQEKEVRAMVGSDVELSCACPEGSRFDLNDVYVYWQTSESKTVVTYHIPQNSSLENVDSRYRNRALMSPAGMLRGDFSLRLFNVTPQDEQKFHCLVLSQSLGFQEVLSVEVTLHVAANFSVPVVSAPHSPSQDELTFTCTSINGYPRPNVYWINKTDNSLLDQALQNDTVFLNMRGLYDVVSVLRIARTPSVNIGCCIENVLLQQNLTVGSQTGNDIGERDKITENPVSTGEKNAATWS

[2] = molecular target: T1, human B7-H2Ig fusion protein; test: flow cytometry on 293T cells transfected with human CTLA-4; B7-H2Ig at 10 µg/ml
B7-DCIg = molecular target: T2, B7-DCIg (Mus musculus, UniProt Q9WUL5); test: CDS well image, 293T cells transfected with the mouse gene, stained with the mouse fusion protein
T2 construct: Ig fusion protein purchased from R&D systems; also called mouse B7-DCIg fusion protein
T2 sequence (fusion protein, looked up): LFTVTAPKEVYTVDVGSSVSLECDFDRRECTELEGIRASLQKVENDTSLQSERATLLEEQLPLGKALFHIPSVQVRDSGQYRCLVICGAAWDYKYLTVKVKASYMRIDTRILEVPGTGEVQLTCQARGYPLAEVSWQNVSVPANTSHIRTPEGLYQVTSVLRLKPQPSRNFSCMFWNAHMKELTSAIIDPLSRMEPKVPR

B7-H1Ig = molecular target: T3, B7-H1Ig (Mus musculus, UniProt Q9EP73); test: as above
T3 construct: Ig fusion protein purchased from R&D systems; also called mouse B7-H1Ig fusion protein

B7-H2Ig = molecular target: T4, B7-H2Ig (Mus musculus, UniProt Q9JHJ8); test: as above
T4 construct: Ig fusion protein purchased from R&D systems; also called mouse B7-H2Ig fusion protein
T4 sequence (fusion protein, looked up): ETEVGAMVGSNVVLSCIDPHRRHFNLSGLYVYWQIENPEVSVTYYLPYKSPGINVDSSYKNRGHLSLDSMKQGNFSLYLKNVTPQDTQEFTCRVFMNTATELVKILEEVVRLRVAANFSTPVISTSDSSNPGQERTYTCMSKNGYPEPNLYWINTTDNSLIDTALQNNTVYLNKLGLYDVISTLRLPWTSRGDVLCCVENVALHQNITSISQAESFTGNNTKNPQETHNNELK

- binding result [1]: binds
B1: human CD28, full length, expressed on cells (CD28+293T cells) (receptor)
chain: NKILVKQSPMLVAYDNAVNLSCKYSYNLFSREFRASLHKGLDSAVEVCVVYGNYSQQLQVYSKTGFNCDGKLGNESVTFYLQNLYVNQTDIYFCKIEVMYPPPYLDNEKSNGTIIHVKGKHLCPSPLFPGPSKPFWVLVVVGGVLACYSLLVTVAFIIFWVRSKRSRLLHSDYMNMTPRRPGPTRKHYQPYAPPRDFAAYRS
notes: This id also stands for CD28 on purified human T cells in the functional rows; also called CD28+ cells

- binding result [2]: binds
B2: human CTLA-4, full length, expressed on cells (CTLA-4+293T cells) (receptor)
chain: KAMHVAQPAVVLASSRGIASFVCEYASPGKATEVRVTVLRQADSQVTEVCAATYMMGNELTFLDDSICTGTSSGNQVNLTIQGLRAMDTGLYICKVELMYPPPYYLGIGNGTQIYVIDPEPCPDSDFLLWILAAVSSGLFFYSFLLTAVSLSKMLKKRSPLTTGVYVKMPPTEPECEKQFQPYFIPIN

- binding result (B7-DCIg): no binding
- binding result (B7-H1Ig): no binding
- binding result (B7-H2Ig): no binding
B3: CTLA-4 (receptor)
membrane protein: not shown

Each block holds one binder with its values, some of them ahead of it.
